Test results reported in PubChem BioAssay AID720708 (National Center for Advancing Translational Sciences (NCATS), 2013).
Hit rate of the full screen: of about 360,000 compounds, about 660 (0.18%) were called active. This list was built around the results that the source calls inconclusive (neither active nor inactive); the mix of calls is not that of the screen. Calls follow the shape of the dose curve; as a rule, active = well fitted inhibition curve with a large enough effect; inconclusive = small, poorly fitted or top-dose-only effect; inactive = no such curve, though single readings can be large or run the other way. No potency is given beside an inconclusive call; the fits are too rough.

Biological target: Rap guanine nucleotide exchange factor 4 (Homo sapiens) (UniProt Q8WZA2)
Chain of UniProt Q8WZA2 (Q8WZA2 whole entry, looked up): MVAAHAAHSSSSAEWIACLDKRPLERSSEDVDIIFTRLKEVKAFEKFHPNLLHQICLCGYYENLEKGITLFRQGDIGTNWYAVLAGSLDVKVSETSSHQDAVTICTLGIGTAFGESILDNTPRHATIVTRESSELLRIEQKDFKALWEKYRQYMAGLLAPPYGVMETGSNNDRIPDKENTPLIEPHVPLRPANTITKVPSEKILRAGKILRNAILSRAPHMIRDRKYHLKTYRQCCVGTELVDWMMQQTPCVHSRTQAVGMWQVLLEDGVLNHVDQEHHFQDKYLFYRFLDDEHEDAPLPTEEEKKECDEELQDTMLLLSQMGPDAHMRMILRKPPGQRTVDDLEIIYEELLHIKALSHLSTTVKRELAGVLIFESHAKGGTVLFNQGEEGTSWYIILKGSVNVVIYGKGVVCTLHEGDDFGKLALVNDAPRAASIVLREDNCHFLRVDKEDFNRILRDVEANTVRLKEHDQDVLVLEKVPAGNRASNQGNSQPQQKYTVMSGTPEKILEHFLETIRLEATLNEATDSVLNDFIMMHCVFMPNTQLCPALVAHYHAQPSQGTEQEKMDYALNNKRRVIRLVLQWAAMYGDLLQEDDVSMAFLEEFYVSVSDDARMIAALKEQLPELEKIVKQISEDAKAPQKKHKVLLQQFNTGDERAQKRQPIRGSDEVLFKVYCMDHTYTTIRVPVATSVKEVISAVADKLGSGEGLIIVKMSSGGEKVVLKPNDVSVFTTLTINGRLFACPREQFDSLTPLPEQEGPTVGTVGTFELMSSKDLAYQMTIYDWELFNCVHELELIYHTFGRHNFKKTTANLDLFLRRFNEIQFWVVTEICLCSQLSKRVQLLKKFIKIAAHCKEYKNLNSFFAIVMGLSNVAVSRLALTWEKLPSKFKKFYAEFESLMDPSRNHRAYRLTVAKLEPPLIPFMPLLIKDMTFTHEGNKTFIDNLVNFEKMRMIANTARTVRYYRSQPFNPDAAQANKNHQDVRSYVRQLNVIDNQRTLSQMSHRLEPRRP
Experiment: qHTS for Antagonist of cAMP-regulated guanine nucleotide exchange factor 2 (EPAC2): primary screen; also: nearly all actives have a fitted effect of over 45% in size
Conditions: EPAC2 GEF exchange of Rap1B-BODIPY-GDP, fluorescence; activity, negative = inhibition: at 114 µM (top of the series) unless noted
% is scaled to controls: 0 for no effect and ±100 for the full control effect; potency is read from the fitted curve at half-maximal effect; tags tell the direction and shape of the fitted curve.

Question: For CC1(C(=O)NCc2ccccc2)CN(S(C)(=O)=O)CC(=O)N1CCc1ccc(O)cc1 (stereo not given), which “activity, negative = inhibition” value is on record?
Answer: inactive: 2.1%

Question: O=C1NC[C@@H](Cc2cccc3ccccc23)N(CCc2cc(C(F)(F)F)cc(C(F)(F)F)c2)C1=O was tested. Which Potency did it give?
Answer: inconclusive [inhibitor, full curve]

Question: Oc1ccccc1N1CCN(c2ccc3ccccc3n2)CC1 was tested. Which “activity, negative = inhibition” value did it give?
Answer: inactive: -9.99%

Question: Which “activity, negative = inhibition” value does the source give for CC(C)c1ccc(C2NC(=O)NC3=C2CCc2ccccc23)cc1 (stereo not given) here?
Answer: inactive: -0.193%

Question: For Cc1cc(Nc2ccccc2)c2c([N+](=O)[O-])cc(C)c(C)c2n1, which activity, negative = inhibition is on record?
Answer: inconclusive: -19% [inhibitor]

Question: With Cn1c(C(=O)N[C@@H](Cc2ccccc2)C(=O)O)cc2cc(Cl)ccc21 as the molecule, how does the “activity, negative = inhibition” value read?
Answer: inactive: -21.3%

Question: With COc1cc(NC(=O)c2ccccc2Cl)c2ncccc2c1 as the molecule, how does the Potency read?
Answer: inconclusive [inhibitor, partial curve]

Question: COc1ccccc1C(=O)Nc1ccccc1C(=O)N1C(C)CCCC1C (stereo not given) was tested. Which Potency did it give?
Answer: inconclusive [inhibitor, partial curve]

Question: CCOC(=O)C(NC(=O)c1ccccc1OCC)(Nc1ncccn1)C(F)(F)F (stereo not given) was tested. Which Potency did it give?
Answer: inconclusive [inhibitor, partial curve]

Question: Which Potency does the source give for CCCNC(=O)OCc1cccnc1Sc1ccc(C)cc1 here?
Answer: inconclusive [inhibitor, full curve, poor fit]

Question: OC(c1ccccc1)(c1nc(-c2csc3ccccc23)cs1)C(F)(F)F (stereo not given) was tested. Which Potency did it give?
Answer: inconclusive [inhibitor, single point]

Question: Which Potency does the source give for Cc1cc(C)cc(NC(=O)CNC(c2ccccc2)c2ccccc2)c1 here?
Answer: inconclusive [inhibitor, partial curve]

Question: How did the Potency turn out when Cc1ccc(-c2nc3ccc(Br)cn3c2Cc2ccccc2)cc1 was run?
Answer: inconclusive [inhibitor, partial curve]

Question: Cc1cc(C(=O)N/N=C/c2cc(Br)cc(Br)c2OC(=O)c2cccc(F)c2)n[nH]1 was tested. Which “activity, negative = inhibition” value did it give?
Answer: inactive: -1.42%

Question: COC(=O)[C@H](c1ccccc1Cl)N1CCc2sccc2C1 was tested. Which Potency did it give?
Answer: inconclusive [inhibitor, partial curve]

Question: How did the Potency turn out when Cc1nn(CCc2nn[nH]n2)c2nc(-c3ccc(C4CCCCC4)cc3)cc(C(F)(F)F)c12 was run?
Answer: inconclusive [inhibitor, single point]

Question: With Cc1ccc(S(=O)(=O)c2c(C)cc(C)nc2N2CCCCC2)cc1 as the molecule, how does the Potency read?
Answer: inconclusive [inhibitor, partial curve]

Question: With COc1ccc(OC)c(/C=C2\SC(=S)N(NS(=O)(=O)c3ccc(C)cc3)C2=O)c1 as the molecule, how does the Potency read?
Answer: inconclusive [inhibitor, partial curve]

Question: For COc1ccc(OCc2n(CC(=O)OC3CC(C)CCC3C(C)C)c3ccccc3[n+]2C)cc1 (stereo not given), which Potency is on record?
Answer: inconclusive [inhibitor, partial curve]

Question: Which Potency does the source give for Cc1cc(C(=O)COC(=O)c2ccc(NC(=O)CC#N)cc2)c(C)n1CC(F)(F)F here?
Answer: inconclusive [inhibitor, full curve, poor fit]

Question: With CCOc1cccc(C(=O)N2CCCCC2c2cccnc2)c1 (stereo not given) as the molecule, how does the “activity, negative = inhibition” value read?
Answer: inactive: -0.909%

Question: O=S(=O)(c1cccc(C(F)(F)F)c1)N1c2ccccc2-n2cccc2C1c1cccnc1 (stereo not given) was tested. Which Potency did it give?
Answer: inconclusive [inhibitor, partial curve]

Question: O=C(CC(Nc1cccc(Cl)c1Cl)C(=O)O)c1ccccc1 (stereo not given) was tested. Which “activity, negative = inhibition” value did it give?
Answer: inactive: -4.09%

Question: COc1ccc(Oc2cn[nH]c2-c2ccc(OC)cc2O)cc1 was tested. Which Potency did it give?
Answer: active: 56.2 µM

Question: Which Potency does the source give for Cc1nnc(SC(C(=O)Nc2cc(Cl)cc(Cl)c2)c2ccccc2)[nH]c1=O (stereo not given) here?
Answer: inconclusive [inhibitor, single point]

Question: How did the Potency turn out when COc1ccc(C)cc1Cn1nnc2ccccc21 was run?
Answer: inconclusive [inhibitor, partial curve]

Question: O=C(/C=C/c1ccccn1)c1cc(Cl)cc(Cl)c1O was tested. Which Potency did it give?
Answer: inconclusive [inhibitor, partial curve]

Question: Which Potency does the source give for CN(Cc1ccccc1)C(=O)C1CCCN(Cc2cccc(Cl)c2)C1 (stereo not given) here?
Answer: inconclusive [inhibitor, single point]

Question: For Cc1cccc(COC[C@H](Cc2ccccc2)N2CCN(C(=O)c3cccc(Cl)c3)CCC2=O)c1, which Potency is on record?
Answer: inconclusive [inhibitor, partial curve]

Question: O=C(c1ccccc1NS(=O)(=O)c1ccccc1[N+](=O)[O-])N1CCOCC1 was tested. Which “activity, negative = inhibition” value did it give?
Answer: inactive: 1.14%

Question: How did the Potency turn out when Cc1sc(NC(=O)c2ccccc2)c(C(=O)N2CCN(C)CC2)c1C was run?
Answer: inconclusive [inhibitor, partial curve]

Question: How did the “activity, negative = inhibition” value turn out when CCN1CCN(C(C(=O)NC2CCCCC2)c2ccnc3ccccc23)CC1 (stereo not given) was run?
Answer: inactive: 1.92%

Question: Which Potency does the source give for O=S1(=O)CCO[C@H]2Cc3ccccc3[C@H]2N1Cc1ccc(Cl)cc1 here?
Answer: inconclusive [inhibitor, partial curve]

Question: C/C(=N/n1cnnc1)c1cccnc1 was tested. Which “activity, negative = inhibition” value did it give?
Answer: inactive: -10.8%

Question: Which “activity, negative = inhibition” value does the source give for Cc1ccc(S(=O)(=O)NCc2ccccc2)cc1C(=O)N(C)Cc1ccccc1F here?
Answer: inactive: -3.79%

Question: COc1ccc2c(c1)C(SCC(=O)NCCc1ccc(Cl)cc1)CC(C)(C)O2 (stereo not given) was tested. Which Potency did it give?
Answer: inconclusive [inhibitor, full curve]

Question: Cc1cccc(/C=N/N2CCN(c3ccccc3)CC2)c1 was tested. Which “activity, negative = inhibition” value did it give?
Answer: inactive: -0.111%

Question: With CCC/C=C/c1ccc(CN2C(C(C)C)C(=O)N(Cc3cn(CCC4OCCCO4)nn3)CCS2(=O)=O)cc1 (stereo not given) as the molecule, how does the Potency read?
Answer: inconclusive [inhibitor, partial curve]

Question: With COc1ccc(C(C)(C)C)cc1NC(=O)c1[nH]c(C)c(C(C)=O)c1C as the molecule, how does the “activity, negative = inhibition” value read?
Answer: inactive: -21.9%

Question: For COC(=O)c1ccc2nc(-c3ccccc3)c(Cc3ccccc3C(F)(F)F)n2c1, which Potency is on record?
Answer: inconclusive [inhibitor, partial curve]

Question: How did the Potency turn out when Nc1cccc2c1C(=O)N(C(=O)/C=C/c1ccc(F)cc1)C2=O was run?
Answer: inconclusive [inhibitor, partial curve]

Question: With CCCc1nc(SCC(=O)c2ccc(OC)cc2)c2ccccc2n1 as the molecule, how does the Potency read?
Answer: inconclusive [inhibitor, partial curve]

Question: How did the “activity, negative = inhibition” value turn out when COc1ccc(/C=C/C(=O)Nc2ccccc2)cc1OC was run?
Answer: inactive: 20.3%

Question: How did the “activity, negative = inhibition” value turn out when CS(=O)(=O)c1nc(S(=O)(=O)c2ccc(Cl)cc2)c(N2CCN(CCO)CC2)s1 was run?
Answer: inactive: -4.86%

Question: Which Potency does the source give for CCOC(=O)Cn1c(-c2ccccc2)cc(SC)c(C#N)c1=O here?
Answer: inconclusive [inhibitor, full curve, poor fit]
